Out of some 48,000 compounds screened, about 120 (0.25%) were called active. Another 4% or so got no clear call; they are omitted. Calls follow the shape of the dose curve; as a rule, active = well fitted activation curve with a large enough effect; inconclusive = small, poorly fitted or top-dose-only effect, or another doubt; inactive = no such curve, though single readings can be large or run the other way. The list shows a part of the results.

This assay is described as follows: Primary qHTS for Identification of Small Molecule Activators of Huntingtin-Antisense Promoter Activity. Also: nearly all actives have a fitted effect of over 55% in size. The settings on record: HEK293 HTT-AS promoter firefly luciferase reporter (activity 0% = vehicle and -100% = no light), 24 h; series mostly up to 57.5 µM; activity change, positive = activation: at the top concentration. A digest of the protocol:
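HEK293 Fluc reporter, 2,500 cells/well, 24 h pre-culture; cpds up to 57.5 uM final, 24 h 37 degrees C; Dual-Glo, 10 min RT; normalized vehicle = 0%, zero RLU = -100%.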
Background: qHTS replaces the single test concentration by a dilution series.
For the compound `Cc1ccc2scc(N3CCN(c4cccc(C(F)(F)F)c4)CC3)c(=O)c2c1`, the “activity change, positive = activation” value was inactive: 7.32%. With `CCc1ccc(NC(=O)c2ccc3c(O)c(S(=O)(=O)c4ccccc4)c(=O)[nH]c3c2)cc1` the figure was inactive: 0.223%; with `COc1ccccc1C(=O)Nc1ccc(OCc2cc(=O)n3cccc(C)c3n2)cc1`, inactive: -8.23%; with `Cc1cc(NC(=O)CSc2nc3c([nH]c4ccccc43)c(=O)n2-c2ccc(Cl)cc2)no1`, inactive: -18.1%. In the case of `Cc1cc(=O)n(Cc2ccccc2Cl)c2c1c(C)nn2-c1ccccc1` it was inactive: -10.4%; in that of `O=C(NCC1CCN(Cc2ccccc2Cl)CC1)c1cc2ccc3cccnc3c2[nH]1`, inactive: -0.48%. In the case of `O=C(CC1Oc2ccccc2NC1=O)NCc1ccc(F)cc1` (configuration not stated) it was inactive: -6.93%.

On to `COc1ccc(CC(=O)Nc2nnc3n2CCS3)cc1`, for which the “activity change, positive = activation” value was inactive: -1.76%. In the case of `Cc1ccc(CSc2nc3ccsc3c(=O)n2CCC(C)C)cc1` it was inactive: -16%; in that of `Cc1cccc(OCc2nnc(-c3ccccc3)o2)c1`, inactive: 22.6%; in that of `CCN1CCN(C(=O)c2ccc3c(c2)N(Cc2ccc(F)cc2)C(=O)c2ccccc2S3(=O)=O)CC1`, inactive: -13.8%. Turning to `CCOc1ccc(NC(=O)c2oc(=O)c3ccccc3c2-c2ccc(C)cc2)cc1`, the “activity change, positive = activation” value was inactive: -21.7%.

With `CCn1c2c(c(=O)n3ncc(C(=O)Nc4ccc(F)cc4Cl)c13)CN(Cc1ccc(OC)cc1)CC2`, the “activity change, positive = activation” value is inactive: -21.2%. On to `CCCN(CCC)c1cc(C)nc2nc(-c3ccc(Cl)cc3)nn12`, for which the “activity change, positive = activation” value was inactive: -5.52%. Take `Cc1ccc(C(=O)CSc2nc(-c3ccccc3)nc3c2CCCC3)cc1C`: the “activity change, positive = activation” value is inactive: -10.1%. With `CC1=C(C(=O)Nc2ccc(C)cc2C)C(c2cccs2)n2nc(SCc3ccc(Cl)cc3)nc2N1` (configuration not stated) the figure was inactive: 0.185%; with `COc1ccc(-c2csc3ncnc(Nc4cccc(F)c4)c23)cc1`, inactive: -2.53%; with `CC(=O)c1ccc(NC(=O)CC2Sc3ccccc3NC2=O)cc1` (configuration not stated), inactive: -23.1%. In the case of `Cc1cc(Oc2nc3ccccn3c(=O)c2/C=C(\C#N)c2nc3ccccc3s2)ccc1Cl` it was inactive: -2.69%; in that of `Cc1nc2nc(NC(=O)C(C)C)[nH]n2c(=O)c1Cc1ccccc1`, inactive: -13.2%; in that of `Cc1ccc(NC(=O)C2CCN(C(=O)c3cnn(-c4ccccc4)c3-n3cccc3)CC2)cc1Cl`, inactive: -44.4%.

As for `Cc1ccc(Nc2nc(C(N)=O)c(NC(=O)c3ccccc3Br)s2)cc1`, the “activity change, positive = activation” value is inactive: 2.57%. Consider `Cc1ccc2c(c1)c1c(c(=O)n(-c3ccccc3C)c(=O)n1Cc1cccc(F)c1)n2C`, for which the “activity change, positive = activation” value is inactive: -29.5%.

In the case of `Cc1ccc(Cl)cc1NC(=O)C(NS(=O)(=O)c1ccc2c(c1)CCC(=O)N2)c1ccccc1` (configuration not stated), the “activity change, positive = activation” value is inactive: -21.3%. In the case of `CCc1ccc(NCc2cc3cc(OC)c(OC)cc3n(CC(=O)Nc3ccc(F)cc3)c2=O)cc1` it was inactive: -5.62%; in that of `Cc1cccc(NC(=O)CC2C(=O)OCCN2Cc2ccccc2)c1` (configuration not stated), inactive: -22.9%.

With `CC1=C(c2ccc(F)cc2)S(=O)(=O)NC1=NCc1ccccc1Cl`, the “activity change, positive = activation” value was inactive: -20.9%. In the case of `COc1cccc(CNC(=O)CCn2c(=O)c3cccn3c3cccnc32)c1` it was inactive: -6.32%; in that of `Cc1ccccc1C(=O)NC(=O)Nc1ccc(-n2nc(C(F)(F)F)cc2C(F)(F)F)cc1`, inactive: -9.18%. In the case of `COc1ccc2cc(CNc3ccccc3)c(=O)n(CC(=O)Nc3ccc(C(C)=O)cc3)c2c1`, the “activity change, positive = activation” value was inactive: -22.9%. As for `CCC(=O)N1CCc2cc(S(=O)(=O)NC(Cc3ccccc3)C(=O)NCc3cccc(OC)c3)ccc21` (configuration not stated), the “activity change, positive = activation” value was inactive: -2.57%. Turning to `Cc1ccc2c(CC(=O)Nc3c(C(=O)c4ccc(F)cc4)oc4ccccc34)coc2c1C`, the “activity change, positive = activation” value was inactive: -2.75%. For `CC(C)c1ccc(NC(=O)C(Cc2ccccc2)n2cccc2)cc1` (configuration not stated), the “activity change, positive = activation” value was inactive: -26.3%.

`Cc1ccc(C)c(S(=O)(=O)c2cn(Cc3ccccc3)c3cc(N4CCCC4)c(F)cc3c2=O)c1`: the “activity change, positive = activation” value was inactive: -21.5%.

On to `CCOc1ccc(NC(=O)Cn2c(=O)n(CC(=O)NCCc3ccccc3)c(=O)c3sccc32)cc1`, for which the “activity change, positive = activation” value is inactive: -11.1%.

As for `Cc1ccc(-n2ccn(CC(=O)c3ccc(F)cc3)c(=O)c2=O)cc1C`, the “activity change, positive = activation” value was inactive: 4.89%. As to `CC(=O)N1CCCc2cc(S(=O)(=O)Nc3ccc(OC(F)(F)F)cc3)ccc21`, the “activity change, positive = activation” value is inactive: -20.9%. In the case of `Cc1cccc(C)c1NC(=O)c1cc(S(=O)(=O)N2CCCc3ccccc32)ccc1F` it was inactive: -37.3%; in that of `COc1cccc(C(=O)NCCc2sc(-c3cccc(C)c3)nc2C)c1`, inactive: -1.87%; in that of `Cc1ccc(-n2[nH]c(C)c(N=Nc3cccc(-c4cccc(C(=O)O)c4)c3O)c2=O)cc1C`, inactive: -33.2%. With `COc1cccc(NC(=O)c2oc3ccccc3c2NC(=O)c2ccc(OC(C)C)cc2)c1` the figure was inactive: 27.3%; with `CCOC(=O)c1ccc(N2C(=O)c3[nH]nc(-c4ccccc4)c3C2c2ccc(C(C)C)cc2)cc1` (configuration not stated), inactive: -58.4%; with `COc1ccc2c(CNCCc3ccco3)c(C(=O)O)n(Cc3ccc(F)cc3)c2c1`, inactive: -18.6%.

For the compound `CCn1cc(C(=O)NCc2ccc(Cl)cc2)c(=O)c2cc(S(=O)(=O)N3CCc4ccccc4C3)ccc21`, the “activity change, positive = activation” value is inactive: -3.16%.

For `CC(=O)Nc1nonc1-c1nnc(SCC(=O)Nc2c(C)cccc2C)n1-c1ccccc1`, the “activity change, positive = activation” value is inactive: -11.9%. Consider `COc1cc(Cl)c(C)cc1NC(=O)CCn1cnc2onc(-c3ccc(F)cc3)c2c1=O`, for which the “activity change, positive = activation” value is inactive: -24.1%. `CC(CNC(=O)Cn1c(-c2cccs2)cc2cc(Cl)ccc21)c1ccccc1` (configuration not stated): the “activity change, positive = activation” value was inactive: -19.8%.

Source of the values: PubChem BioAssay AID1508624 (National Center for Advancing Translational Sciences (NCATS), 2021).
